Among all 310,000 compounds or so, about 14,000 (4.5%) showed an effect of 50% or more. The effect is printed as a negative number. The list shows a part of the results.
target: human ether-à-go-go-related gene (hERG) potassium channel (human, UniProt Q12809); assay: primary screen, population patch clamp on CHO cells stably expressing hERG
Procedure: Briefly, Chinese hamster ovary (CHO) cells stably expressing the hERG channel were dislodged from tissue culture flasks and dispensed into PPC plates. […] During the recording, background leak currents were estimated by a 100 ms step to -80 mV from an initial holding potential of -70 mV and subtracted from the subsequent current measurement. The campaign was conducted in two phases using slight differences in recording protocol. In the first phase, the initial voltage pulse used a 100 ms step to -30 mV from a holding potential of -70 mV, a 2 s conditioning step to +25 mV, and a 2 s test step to -30 mV. During the second phase of the screen, the potential during the conditioning step was raised to +45 mV. In both phases of the campaign, a secondary voltage pulse was applied using the same parameters as the second phase initial pulse. The initial and secondary pulses were applied in the absence of compound, and upon application of 1 μM and 10 μM test concentrations. […]
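Also: peak tail current of the secondary pulse compared with the same well before compound.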

Sequence of human ether-à-go-go-related gene (hERG) potassium channel (Q12809 whole entry, looked up): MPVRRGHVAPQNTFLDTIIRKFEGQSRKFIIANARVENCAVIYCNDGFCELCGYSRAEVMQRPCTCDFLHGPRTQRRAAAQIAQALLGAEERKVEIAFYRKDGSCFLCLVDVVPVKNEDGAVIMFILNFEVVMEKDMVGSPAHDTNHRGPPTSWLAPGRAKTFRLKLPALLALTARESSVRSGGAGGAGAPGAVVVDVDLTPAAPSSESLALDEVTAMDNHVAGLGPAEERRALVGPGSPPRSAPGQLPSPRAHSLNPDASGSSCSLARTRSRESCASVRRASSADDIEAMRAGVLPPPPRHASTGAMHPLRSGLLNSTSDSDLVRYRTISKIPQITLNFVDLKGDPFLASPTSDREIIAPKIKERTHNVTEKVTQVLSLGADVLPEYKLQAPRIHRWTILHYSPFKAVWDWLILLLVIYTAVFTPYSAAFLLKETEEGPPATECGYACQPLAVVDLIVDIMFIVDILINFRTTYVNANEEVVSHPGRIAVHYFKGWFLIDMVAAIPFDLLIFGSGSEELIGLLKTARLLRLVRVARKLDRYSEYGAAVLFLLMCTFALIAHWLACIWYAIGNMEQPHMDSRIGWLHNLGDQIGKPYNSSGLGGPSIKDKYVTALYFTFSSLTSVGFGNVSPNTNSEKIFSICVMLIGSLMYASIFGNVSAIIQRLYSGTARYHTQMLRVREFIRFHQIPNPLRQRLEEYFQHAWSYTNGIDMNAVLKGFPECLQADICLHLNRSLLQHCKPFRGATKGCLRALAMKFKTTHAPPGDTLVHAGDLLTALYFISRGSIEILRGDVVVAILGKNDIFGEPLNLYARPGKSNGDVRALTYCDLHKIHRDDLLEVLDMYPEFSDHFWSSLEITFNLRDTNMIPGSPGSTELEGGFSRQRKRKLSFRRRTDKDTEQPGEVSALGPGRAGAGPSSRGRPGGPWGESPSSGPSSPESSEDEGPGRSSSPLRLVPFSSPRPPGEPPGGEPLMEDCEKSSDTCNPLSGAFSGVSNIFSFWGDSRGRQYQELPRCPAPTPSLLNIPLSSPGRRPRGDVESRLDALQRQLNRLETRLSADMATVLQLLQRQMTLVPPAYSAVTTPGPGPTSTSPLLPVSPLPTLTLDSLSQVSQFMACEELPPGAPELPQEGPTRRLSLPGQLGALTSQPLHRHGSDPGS

| SMILES | hERG current change (%, negative = inhibition) at 10uM [%] |
| --- | --- |
| C/C(=N\NC(=O)c1ccc(Cl)cc1)c1cccc(NC(=O)c2cccnc2)c1 | -20 |
| COc1nc(OCC#N)nc(N2CCCCC2)n1 | 9.65 |
| O=C(Nc1nnc(CCOCCOCCc2nnc(NC(=O)c3ccco3)s2)s1)c1ccco1 | -0.704 |
| COc1ccc(C(=O)c2ccsc2N)cc1 | 3.5 |
| CCOc1ccc(S(=O)(=O)Nc2ccn(C)n2)cc1 | -27.8 |
| O=C(COC(=O)c1ccccc1Nc1ccccc1F)c1ccccc1 | 12.7 |
| COc1cccc(OC)c1C(=O)Nc1ccc2c(c1)n(C)c(=O)n2C | 18.2 |
| COc1ccc(N2CCN(C(=O)c3cccc4nc(C)oc34)CC2)cc1 | 13.5 |
| COc1ccc(Nc2nnc(SCC(=O)N3CC(=O)Nc4ccccc43)s2)cc1 | 14.8 |
| CN(C(=O)COC(=O)c1cccc(S(=O)(=O)N2CCCCC2)c1)C1CCS(=O)(=O)C1 (stereo not shown) | -19.4 |
| COc1ccccc1OCC(=O)NC1CCSc2ccccc21 (stereo not shown) | -15.8 |
| COc1ccc(NC(=O)CN(C)S(=O)(=O)c2ccc3c(c2)CCCN3C(C)=O)cc1 | 12.1 |
| CC1(C)CC(=O)C=C(NCc2ccncc2)C1 | -1.21 |
| CC(C)(C)n1cn[nH]c1=S | 22 |
| O=C(Oc1ccc2c(=O)c(Cl)coc2c1)c1cccnc1 | 16.3 |
| COc1ccc(S(=O)(=O)N2CCC(C(=O)N3CCc4ccccc4C3)CC2)cc1Cl | -12.7 |
| O=C(O)Cc1ccc(NC(=O)c2cccs2)cc1 | 5.61 |
| Cc1cccc(C)c1OCc1nnc(NC(=O)CSc2ccc(Cl)cc2)s1 | 8.78 |
| COC(=O)c1ccc(C)c(NC(=O)c2ccc(Cl)c([N+](=O)[O-])c2)c1 | -7.31 |
| CC(=O)c1cc(C(=O)N2CCc3c([nH]c4ccccc34)C2C2CCCCC2)[nH]n1 (stereo not shown) | -10.3 |

| SMILES | hERG current change (%, negative = inhibition) at 10uM [%] |
| --- | --- |
| CCn1cc(C(=O)OCC(=O)Nc2cccc(Cl)c2Cl)c(=O)c2ccc(C)nc21 | 1.81 |
| COc1ccc(C2N(c3ccc(OC)cc3)C(=S)N3CCCN23)cc1 (stereo not shown) | 0.191 |
| CCc1cc(=O)n2[nH]c(C)c(-c3ccccc3OC)c2n1 | -5.14 |
| COc1ccc(-c2nc(-c3ccncc3)no2)c(OC)c1 | 5.38 |
| Cc1ccc(CN2CCCNC2=O)cc1 | -13 |
| Cc1cccc(CCNC(=O)C2CCC(CNc3c(N4CCCC4)c(=O)c3=O)CC2)c1 (stereo not shown) | 10.3 |
| CCN(CCCNC(=O)C1CCN(S(=O)(=O)CC)CC1)c1ccccc1 | -21.7 |
| COc1ccccc1NC(=O)CSCC(=O)N1c2ccccc2CCc2ccccc21 | -8.71 |
| COc1cccc(N(CC(=O)N/N=C(\C)c2cccs2)S(C)(=O)=O)c1 | 6.58 |
| CC(C)(C)NC(=O)CN(CCN1CCOCC1)C(=O)CNS(=O)(=O)c1ccc(Cl)cc1 | 27.7 |
| CCSc1nnc(NC(=O)CSc2nc3c(cc2C#N)CCCC3)s1 | 5.33 |
| Cc1ccc(/C=N/n2c(=O)c(C(C)(C)C)nn3cnnc23)cc1 | 0.988 |
| C=CCN(CC(=O)NC1CCCC1)C(=O)C(=O)Nc1ccc2c(c1)OCCO2 | 25 |
| O=C(NCc1nc(-c2ccccc2)cs1)c1ccccc1 | 8.6 |
| O=C(Nc1cc(C(F)(F)F)ccc1N1CCOCC1)c1ccccc1 | 12.6 |
| Cc1nc(Nc2cccc(O)c2)c2oc3ccccc3c2n1 | 12.7 |
| CC(=O)Nc1c2c(nn1-c1ccccc1C)CS(=O)(=O)C2 | 13.7 |
| Cc1cccc(OCCc2nnc(N)s2)c1C | 15.2 |
| O=C(Nc1ccc(F)cc1)N1CCC(c2nc3c(nnn3Cc3ccccc3Cl)c(=O)[nH]2)CC1 | 8.68 |
| Cc1ccc(OCc2ccc(C(=O)N3CCCC3)o2)cc1C | -48.6 |

| SMILES | hERG current change (%, negative = inhibition) at 10uM [%] |
| --- | --- |
| CCS(=O)(=O)c1ccccc1C(=O)NC1CCCc2ccccc21 (stereo not shown) | 22.7 |
| O=C(CSc1n[nH]c(-c2ccccc2)n1)Nc1ccc(N2CCOCC2)cc1 | 14.5 |
| C=CCNC(=S)N1CCN(c2cccc(C(F)(F)F)c2)CC1 | -36.4 |
| Cc1ccc(OCCn2ccc(=O)[nH]c2=O)cc1C | 1.46 |
| N#C/C(=C1\C(=O)Nc2c(Cl)cc(Cl)cc21)c1nnc2n1CCCCC2 | -5.38 |
| CCOC(=O)c1ccc(NC(=O)C2CCN(S(=O)(=O)c3c(C)nn(C)c3C)CC2)cc1 | -28.3 |
| CC(=O)Nc1ccc(S(=O)(=O)Nc2ccc(N3CCOCC3)c(F)c2)cc1 | 0.0769 |
| O=C(NCc1ccccc1)C(=O)NCC(c1ccco1)N1CCOCC1 (stereo not shown) | -2.29 |
| CC1CCCN(C(=O)c2ccc(S(=O)(=O)Nc3ccccc3Cl)cc2)C1 (stereo not shown) | 6.76 |
| O=C(Nc1ccc2c(c1)OCO2)N1CCN(c2ccc(F)cc2)CC1 | -28 |
| CCOC(=O)C(=O)Nc1nnc(Cc2ccc(OC)c(OC)c2)s1 | -5.76 |
| OCC[C@H]1C[C@@H](O)[C@H](O)[C@]2(CCCCO2)O1 | 3.51 |
| C=CCc1cccc2cc(C(=O)NC(C)(C)C)c(=O)oc12 | 5.26 |
| CC(=O)NC(CCS(C)(=O)=O)C(=O)Nc1nc(C)cs1 (stereo not shown) | 0.744 |
| CCOCCCNC(=O)C1CCN(C(=O)N(C)C)CC1 | 11.3 |
| Cc1ccc(Nc2nc3c(c(=O)[nH]c(=O)n3C)n2Cc2ccc(F)cc2)cc1 | 19.9 |
| CCC(C(=O)NCCCN1CCN(CCCNC(=O)C(CC)c2ccccc2)CC1)c1ccccc1 (stereo not shown) | 31.2 |
| OCC12CO[C@@H]3c4ccccc4[C@H](OC1)N32 (stereo partly shown) | 18.3 |
